Hit rate of the full screen: of about 370,000 compounds, about 150 (0.041%) were called active. The shares of active, inactive and inconclusive entries below differ from those in the screen. The call rests on the fitted dose curve; in most records, active means well fitted inhibition curve with a large enough effect; inconclusive means small, poorly fitted or top-dose-only effect; inactive means flat fitted curve, though single readings scatter. No potency is given beside an inconclusive call; the fits are too rough.
The molecules below were run against Beta-lactamase (Escherichia coli (strain K12)) (UniProt P00811) (assay: qHTS Inhibitors of AmpC Beta-Lactamase (assay with detergent)). Conditions: AmpC hydrolysis of nitrocefin, absorbance 480 nm, 0.01% Triton; activity change, negative = inhibition: at 114 µM (top of the series).
Chain of UniProt P00811 (P00811 whole entry, looked up): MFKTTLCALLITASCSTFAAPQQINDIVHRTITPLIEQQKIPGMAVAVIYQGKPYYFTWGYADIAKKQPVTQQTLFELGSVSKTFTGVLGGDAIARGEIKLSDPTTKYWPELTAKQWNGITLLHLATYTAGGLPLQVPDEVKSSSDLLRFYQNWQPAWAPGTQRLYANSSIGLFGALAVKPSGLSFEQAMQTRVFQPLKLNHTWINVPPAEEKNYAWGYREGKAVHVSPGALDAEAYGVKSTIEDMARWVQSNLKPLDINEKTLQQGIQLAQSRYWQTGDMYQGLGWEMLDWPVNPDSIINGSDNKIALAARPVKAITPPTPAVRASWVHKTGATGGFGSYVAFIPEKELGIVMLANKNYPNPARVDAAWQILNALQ
Method in brief: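 20 mM phosphate pH 7.0 + 0.01% (detergent screen) or 0.0001% Triton X-100; 5.3 nM AmpC reagent; cpd preinc 15 min RT; nitrocefin (800 uM stock) to start; A480 q20 s × 4 min; Activity was normalised to no-enzyme and no-compound control wells.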
For CCOC(=O)c1ccc(CN(Cc2ccccc2)S(=O)(=O)c2cccc([N+](=O)[O-])c2)cc1, the Potency was inconclusive [inhibitor, partial curve, poor fit]. CN(C)S(=O)(=O)c1ccc(S(=O)(=O)NCCN2CCOCC2)cc1 was tested, and the Potency was inconclusive [inhibitor, full curve]. For O=c1[nH]c(=S)n(C2CC2)c(O)c1C=Nc1cccc(C(F)(F)F)c1, the “activity change, negative = inhibition” value was inactive: -4.34%. COc1ccc(/C=N/NC(=O)CC(=O)NCCc2ccccc2)cc1OC was tested, and the Potency was inconclusive [inhibitor, full curve, poor fit]. For COc1ccc(NC(=O)CN(C)CC(=O)Nc2cccc(S(=O)(=O)N(C)c3ccccc3)c2)cc1, the Potency was inconclusive [inhibitor, full curve, poor fit]. With CCCCOC(=O)c1ccc(NC(=O)c2ocnc2C)cc1 the Potency was inconclusive [inhibitor, single point]. With CC(=O)N(c1ccc(Cl)cc1)c1nc(C)cc(C)c1C#N the “activity change, negative = inhibition” value was inactive: 2.63%. In the case of Cc1cc(C)nc(SC2CC(=O)N(c3ccc(Cl)cc3)C2=O)n1 (stereo not drawn), the “activity change, negative = inhibition” value was inactive: 4.83%. With C[C@@H](NC(=O)[C@@H]1Cc2ccccc2CN1)C(=O)NCC1CCCO1 (stereo partly drawn) the “activity change, negative = inhibition” value was inactive: -0.535%. For COc1ccc2oc(C(=O)N3CCN(c4ncccn4)CC3)c(C)c2c1, the Potency was inconclusive [inhibitor, full curve, poor fit]. With Cc1coc2cc3oc(=O)c4c(c3cc12)CCCC4 the Potency was inconclusive [inhibitor, full curve, poor fit]. In the case of CC(=O)c1c(C)[nH]c(C(=O)COC(=O)c2cc(C)oc2C)c1C, the Potency was inconclusive [inhibitor, full curve, poor fit]. With Cc1cc(C)n(S(=O)(=O)c2ccccc2[N+](=O)[O-])n1 the Potency was inconclusive [inhibitor, partial curve, poor fit]. COc1ccc(-c2cc(C(F)(F)F)n3nc(C)c(-c4ccccc4)c3n2)cc1OC was tested, and the “activity change, negative = inhibition” value was inactive: 17.4%. With CCSc1nc(=S)n(Cc2ccccc2)c(C)c1C(C)=O the Potency was inconclusive [inhibitor, full curve]. N#C/C(=C\c1ccc(Cl)cc1)c1nc2ccccc2o1 was tested, and the “activity change, negative = inhibition” value was inactive: -11.5%. For Cc1ccc(NC(=O)Cn2ccc([N+](=O)[O-])n2)cc1Cl, the Potency was inconclusive [inhibitor, single point]. With Cc1ccc(CN2C(=O)C3CCCN3c3ccc(C#N)cc32)cc1 (stereo not drawn) the Potency was inconclusive [inhibitor, full curve, poor fit]. For CCOc1ccc(CCNC(=O)COC(=O)Cc2c[nH]c3ccccc23)cc1OCC, the Potency was inconclusive [inhibitor, full curve, poor fit]. COC(=O)c1ccc(CSc2nc3c(c(=O)n2-c2ccc(C)cc2)SCC3)o1 was tested, and the Potency was inconclusive [inhibitor, full curve, poor fit]. In the case of CCCNC(=O)NC(=O)COc1ccc(-c2ccc(C#N)cc2)cc1, the Potency was inconclusive [inhibitor, full curve]. In the case of O=C(c1ccc(Br)c(S(=O)(=O)N2CCCCC2)c1)N1CCCCC1, the “activity change, negative = inhibition” value was inactive: 0.591%. In the case of CCN(CC)S(=O)(=O)c1ccc(-c2nnc3sc4cccc(C)c4n23)cc1, the Potency was inconclusive [inhibitor, full curve]. For CCCCCCc1c(C)c2c(cc(C)c3c(C)coc32)oc1=O, the “activity change, negative = inhibition” value was inactive: 11.1%. In the case of C/C(=N\NS(=O)(=O)c1ccc(Cl)cc1)c1ccc(NC(=O)c2ccco2)cc1, the Potency was inconclusive [inhibitor, full curve, poor fit]. With O=C(Cn1c(=O)sc2ccccc21)NCc1ccccn1 the Potency was inconclusive [inhibitor, full curve, poor fit]. Cc1cc(N2CCCC2)ccc1NC(=O)COc1ccccc1 was tested, and the Potency was inconclusive [inhibitor, full curve, poor fit]. Cn1c(N2CCN(C(=O)NCc3ccccc3)CC2)nc2ccccc21 was tested, and the Potency was inconclusive [inhibitor, full curve]. With COC(=O)C1(CO)NC(c2ccc(C)cc2)C2C(=O)N(c3ccccc3)C(=O)C21 (stereo not drawn) the “activity change, negative = inhibition” value was inactive: 1.67%. In the case of COc1cc(/C=N/N2C(=O)c3ccccc3NC2(C)c2cccc([N+](=O)[O-])c2)cc(Br)c1O (stereo not drawn), the Potency was inconclusive [inhibitor, partial curve, poor fit]. With CC[N+](C)(C)CCN(Cc1ccc(Cl)cc1)c1ccccn1 the “activity change, negative = inhibition” value was inactive: -4.82%. Cc1noc(C(=O)NCc2ccco2)c1Cl was tested, and the Potency was inconclusive [inhibitor, full curve]. O=C1C(Cl)=C(N2CCC(C(=O)O)CC2)C(=O)c2ccccc21 was tested, and the “activity change, negative = inhibition” value was inactive: 2.93%. In the case of COc1ccc(C2C=C(c3ccccc3)Nc3nc(NC(C)=O)nn32)cc1 (stereo not drawn), the “activity change, negative = inhibition” value was inactive: 20.3%. With CCN(Cc1ccccc1)C(c1ccccn1)c1nnnn1C1CCCCC1 (stereo not drawn) the Potency was inconclusive [inhibitor, full curve, poor fit]. For NC(=O)C1(N2CCCCC2)CCN(C(=S)Nc2cc(F)cc(F)c2)CC1, the “activity change, negative = inhibition” value was inactive: -4.96%. In the case of Nc1ccc(NC(=O)CCN2CCOCC2)cc1, the “activity change, negative = inhibition” value was inactive: 9.85%. With CCc1cccc(NC(=O)Cn2c(=O)n(CCCCCC(=O)NCc3ccc(F)cc3)c(=O)c3sccc32)c1 the “activity change, negative = inhibition” value was inactive: -7.32%. O=C(Cc1ccccn1)c1ccc(F)cc1 was tested, and the “activity change, negative = inhibition” value was inactive: -13.3%. In the case of COc1c(Cl)cc(-c2noc(C)c2C(=O)NCc2ccccc2)cc1Cl, the Potency was inconclusive [inhibitor, full curve, poor fit]. For CCOc1cc(CNCCc2ccc(S(N)(=O)=O)cc2)ccc1OCc1ccccc1, the “activity change, negative = inhibition” value was inactive: -1.4%. COc1cc(/C=N/N2CCN(c3ccc(Cl)cc3)CC2)cc(OC)c1OC(C)=O was tested, and the Potency was inconclusive [inhibitor, full curve, poor fit]. In the case of CC(=O)Nc1ccc(N2CCCCC2)c(C(=O)Nc2cccc(C)c2)c1, the Potency was inconclusive [inhibitor, full curve]. In the case of CCn1cc(C(=O)OCC(=O)Nc2cc(Cl)ccc2C)c(=O)c2ccc(C)nc21, the “activity change, negative = inhibition” value was inactive: 14.8%. For C/C(=N\NC(=O)CCCNc1ccc(C)cc1)c1ccccn1, the Potency was inconclusive [inhibitor, full curve]. For CC(C)C[C@@H]1NC(=O)[C@H](CO)NC(=O)c2cc([N+](=O)[O-])cc(I)c2OCC[C@@H](C(N)=O)NC1=O, the Potency was inconclusive [inhibitor, full curve, poor fit]. In the case of O=C(C(Cc1ccccc1)n1cccc1)N1CCCCC1 (stereo not drawn), the Potency was inconclusive [inhibitor, partial curve, poor fit]. For COc1ccc(NC(=O)N[C@@H](CCSC)C(=O)O)cc1OC, the Potency was inconclusive [inhibitor, full curve, poor fit]. COc1ccc(C(=O)CC(=O)C(=O)Nc2ccccc2)cc1 was tested, and the “activity change, negative = inhibition” value was inactive: -3.3%. With O=C(NNC(=O)C1CCN(S(=O)(=O)c2ccccc2C(F)(F)F)CC1)c1ccccc1O the Potency was inconclusive [inhibitor, full curve, poor fit]. O=C(CCNS(=O)(=O)c1ccccc1C(F)(F)F)N1CCN(S(=O)(=O)c2cccc(Cl)c2)CC1 was tested, and the Potency was inconclusive [inhibitor, full curve, poor fit]. CCN(CC)CCCNC(=O)CNC(=O)c1nn(-c2ccc(OC)cc2)c(=O)c2ccccc12 was tested, and the “activity change, negative = inhibition” value was inactive: 2.34%. With COc1ccc(-c2nc3ccccc3c(C(=O)Nc3ccc(S(=O)(=O)Nc4cc(C)on4)cc3)c2C)cc1 the Potency was inconclusive [inhibitor, full curve]. In the case of COCc1c(C(=O)N/N=C\c2cccnc2)nnn1-c1nonc1N, the Potency was inconclusive [inhibitor, full curve, poor fit]. O=C(COC(=O)CC1c2ccccc2CCN1S(=O)(=O)c1ccccc1)Nc1ccccc1 (stereo not drawn) was tested, and the Potency was inconclusive [inhibitor, single point]. CCc1ccc(CNC(=O)c2cc3c(s2)-c2ccccc2OC3)cc1 was tested, and the “activity change, negative = inhibition” value was inactive: -0.364%. With COc1cc(NC(=O)CSc2nc3nc(C)c(Cc4ccccc4)c(C)n3n2)cc(OC)c1OC the “activity change, negative = inhibition” value was inactive: 5.17%. With CCn1cc(C(=O)NCC2CCCO2)c2cc(OC)c(OC)cc2c1=O (stereo not drawn) the Potency was inconclusive [inhibitor, partial curve, poor fit]. In the case of CCN(CC)S(=O)(=O)c1ccc(Br)c(OC)c1, the Potency was inconclusive [inhibitor, full curve, poor fit]. For O=S(=O)(c1cccc(Cl)c1)c1nnn2c1nc(NC1CCCC1)c1sccc12, the “activity change, negative = inhibition” value was inactive: 0.966%. With Cc1cccc(NC(=O)C2CCCN(S(=O)(=O)c3cccc4cccnc34)C2)c1 (stereo not drawn) the Potency was inconclusive [inhibitor, full curve, poor fit]. For COC(=O)c1ccc2c(=O)[nH]c(CSc3nnc(C(F)(F)F)n3C)nc2c1, the Potency was inconclusive [inhibitor, full curve, poor fit]. Cc1cccc(NC(=O)c2cccc(C(=O)Nc3cccc(C)c3)c2)c1 was tested, and the “activity change, negative = inhibition” value was inactive: -6.29%. For CCOC(=O)c1c(C)[nH]c(C(=O)COC(=O)c2cnc(C)cn2)c1C, the Potency was inconclusive [inhibitor, partial curve, poor fit]. OC(CCN1CCOCC1)(c1ccc(Cl)cc1)C1CCCCC1 (stereo not drawn) was tested, and the Potency was inconclusive [inhibitor, single point]. For CCc1nc(SCC(=O)Nc2nccs2)c2oc3ccccc3c2n1, the Potency was inconclusive [inhibitor, full curve, poor fit]. For Cc1cc(C)nc(N(C#N)CN2C(=O)c3ccccc3S2(=O)=O)n1, the Potency was inconclusive [inhibitor, full curve, poor fit]. In the case of Cc1ccc(/C=C/C(=O)NC2=NCCS2)cc1, the Potency was inconclusive [inhibitor, full curve, poor fit].
Further: nearly all actives have a fitted effect of over 25% in size.
Potency means the concentration at half of the fitted maximal effect; tags describe the fitted curve by direction and shape.
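Wherever activity change, negative = inhibition is given: 0% = no-compound wells and -100% = no-enzyme wells.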
